Data: PubChem BioAssay AID360 (National Center for Advancing Translational Sciences (NCATS), 2006)
The whole screen tested about 48,000 compounds, of which about 550 (1.1%) were called active. Another 4% or so got no clear call; they are omitted. No stated cut-off is given here; in the data, active means potency below about 15 µM; inconclusive means mostly about 16 µM to 33 µM; inactive means weaker than that. This is one part of the list.

biological target: Lysosomal acid glucosylceramidase (Homo sapiens) (UniProt P04062); assay: Glucocerebrosidase; details: purified enzyme, resorufin glucoside fluorescence (screen aimed at inhibitors), 20 min;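 further: the screen sought inhibitors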
Chain of UniProt P04062 (P04062 whole entry, looked up): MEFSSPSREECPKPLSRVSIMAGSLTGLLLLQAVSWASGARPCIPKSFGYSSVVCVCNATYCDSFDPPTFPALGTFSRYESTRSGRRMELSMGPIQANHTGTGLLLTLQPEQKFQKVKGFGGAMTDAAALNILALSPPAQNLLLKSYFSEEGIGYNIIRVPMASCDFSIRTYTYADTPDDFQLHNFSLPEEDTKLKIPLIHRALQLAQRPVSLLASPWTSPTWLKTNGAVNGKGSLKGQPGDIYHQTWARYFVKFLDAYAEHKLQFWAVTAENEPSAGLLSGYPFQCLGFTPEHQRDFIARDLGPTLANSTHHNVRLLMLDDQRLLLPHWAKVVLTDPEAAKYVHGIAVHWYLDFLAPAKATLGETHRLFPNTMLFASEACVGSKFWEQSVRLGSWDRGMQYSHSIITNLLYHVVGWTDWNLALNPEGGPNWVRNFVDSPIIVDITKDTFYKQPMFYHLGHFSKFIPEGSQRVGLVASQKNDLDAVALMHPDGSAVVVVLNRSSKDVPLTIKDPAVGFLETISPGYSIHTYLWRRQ
Method in brief: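 Wild-type enzyme at 0.2 nM final in 50mM citric acid/KH2PO4, 10mM sodium taurocholate, 0.01% tween-20, pH 5.9, with resorufin beta-D-glucopyranoside at 30 uM final. Compounds titrated, 20 min at RT, red fluorescence read; AC50 from titration.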
Potency means the concentration at half of the fitted maximal effect.

Potency, inactive:
C/C=C/c1ccc(OCCCCn2cncn2)c(OC)c1 > 76.9 µM, NC(=O)c1cccc2c(=O)oc3ccccc3c12 > 76.9 µM, N#C/C(=C(/O)COC(=O)c1ccc2c(c1)OCCO2)c1nc2ccccc2[nH]1 > 76.9 µM, Brc1c(OCCOCCn2cncn2)ccc2ccccc12 > 76.9 µM, Cc1ccccc1NC(=O)N1CCCC(c2nc(-c3ccc(F)cc3)no2)C1 (stereo unspecified) > 76.9 µM, O=C(CNS(=O)(=O)c1ccc(F)cc1)N1CCN(c2ccccc2)CC1 > 76.9 µM, COc1ccc(NC(=O)CSc2nnc(-c3ccccn3)n2N)cc1 > 76.9 µM, Cc1ccccc1CS(=O)(=O)Cc1ccc(C(=O)NCCCN2CCCC2=O)o1 > 76.9 µM, O=C(c1cccs1)N1CCN(S(=O)(=O)N2CCOCC2)CC1 > 76.9 µM, CNc1nc(SC)nc(N2CCOCC2)n1 > 76.9 µM, O=C1CSc2ccc(C(=O)N3CCN(c4ccccn4)CC3)cc2N1 > 76.9 µM, CC(C)(C)n1ncc2c(=O)n(CC(=O)N3CCc4ccccc43)cnc21 > 76.9 µM, COc1ccc(-c2sccc2C(C)C(=O)O)cc1 (stereo unspecified) > 76.9 µM, COCCNC(=O)Cn1cnc2ccc(S(=O)(=O)N3CCC(C)CC3)cc2c1=O > 76.9 µM, CC1CCN(C(=O)CN(c2ccc3c(c2)OCO3)S(C)(=O)=O)CC1 > 76.9 µM, CN(C)c1nc(Oc2ccc(N)cc2)nc(N(C)C)n1 > 76.9 µM, Cc1oc(-c2ccc(F)cc2)cc1-c1nn2c(-c3ccoc3C)nnc2s1 > 76.9 µM, COC(=O)c1ccc(S(=O)(=O)N2C3CCC2CC(NC(=O)NC2CCCCC2)C3)cc1 (stereo unspecified) > 76.9 µM, CCOc1cc(C#N)c(NC(=O)c2cccnc2)cc1OCC > 76.9 µM, Cc1nc(NC(=O)c2ccco2)sc1C(=O)Nc1ccc(Br)cc1 > 76.9 µM, Cn1cc(C(=O)NC2CCCCCC2)c(=O)c2cc(S(=O)(=O)N3CCCC3)ccc21 > 76.9 µM, O=C1CC(Nc2ccc(N3CCOCC3)cc2)C(=O)N1C1CCCCC1 (stereo unspecified) > 76.9 µM, CCn1c(SCC(=O)Nc2nc3c(s2)CCCC3)nnc1-c1ccccc1 > 76.9 µM, COc1cc(C(=O)NCC(=O)OCC(=O)c2ccc[nH]2)cc(OC)c1OC > 76.9 µM, COCCCNC(=O)c1c(N)n(-c2ccc3c(c2)OCO3)c2nc3ccccc3nc12 > 76.9 µM, NS(=O)(=O)c1ccc(CCNC(=O)c2cccnc2)cc1 > 76.9 µM, CCN(Cc1ccccc1)C(=O)CSc1nc(C)cc2c1C(=O)OC2 > 76.9 µM, O=C1CS/C(=N\c2ccccn2)N1C1CCCCC1 > 76.9 µM, O=C(Nc1cccc(C(F)(F)F)c1)C1C2CC3OC(=O)C1C3C2 (stereo unspecified) > 76.9 µM, O=c1c2cc(Cl)ccc2nc2ccc(N3CCCC3)nn12 > 76.9 µM, O=C(NCCCn1ccnc1)c1cc(-c2ccc3c(c2)OCO3)on1 > 76.9 µM, O=C(NCc1ccco1)c1csc2c1CCCCC2 > 76.9 µM, O=C1NC(=O)C(CC(=O)N(Cc2ccco2)C2(C(=O)NC3CCCCC3)CCCCC2)N1 (stereo unspecified) > 76.9 µM, O=C(NCc1cccnc1)Nc1ccc(F)cc1F > 76.9 µM, CC(C)=CCSc1nnc(CCNC(=O)OC(C)(C)C)o1 > 76.9 µM, O=C(O)Cn1nnnc1SCC(=O)Nc1ccc(OC(F)(F)F)cc1 > 76.9 µM, CC(C)(C)NC(=O)C(c1ccccc1)N(C(=O)c1ccco1)C1CC1 (stereo unspecified) > 76.9 µM, Cc1ccccc1Nc1nc(N)nc(CSc2nnc3sc4ccccc4n23)n1 > 76.9 µM, CC(C)C(c1nnnn1CCc1ccccc1)N1CCN(C(=O)c2ccco2)CC1 (stereo unspecified) > 76.9 µM, CCCn1c(=O)c(C(=O)Nc2nnc(CC)s2)c(O)c2ccccc21 > 76.9 µM, COc1ccccc1Oc1ccc(S(=O)(=O)N2CCCC2)cc1 > 76.9 µM, CC(C)(C)OC(=O)N1CCC(C(=O)N2CCC[C@H]2C(=O)O)CC1 > 76.9 µM, COC(=O)Nc1ccc(S(=O)(=O)N(CCO)CC(F)(F)C(F)F)cc1 > 76.9 µM, O=c1cc(-c2ccccc2)nc2nc(-c3ccco3)[nH]n12 > 76.9 µM, Cc1nc(N)c(C#N)c(-c2cccnc2)c1C > 76.9 µM, COc1ccccc1Nc1nc(N)nc(CSc2nnc(C)s2)n1 > 76.9 µM, C=CCn1c(COc2ccc(CC)cc2)nnc1SC/C(O)=C(\C#N)c1nc2ccccc2[nH]1 > 76.9 µM, COC(=O)c1cn(NC(=O)c2cnccn2)c(=O)c2ccccc12 > 76.9 µM, CCOC(=O)c1ccc(S(=O)(=O)N2CCN(CC(=O)NC(=O)NC3CCCCC3)CC2)cc1 > 76.9 µM, COc1ccc(NC(=O)CSc2nnc(Cc3cccn3C)n2CCc2ccccc2)cc1OC > 76.9 µM, Cc1nc(CN2CCN(C(=O)c3ccc(Br)cc3)CC2)cs1 > 76.9 µM, CCOc1ccc(C(=O)NCc2ccncc2)cc1 > 76.9 µM, CSc1nc(O)c(C2OC(=O)c3ccccc32)c(=O)[nH]1 (stereo unspecified) > 76.9 µM, Cc1cc(NC(=O)C2CC=CCC2C(=O)O)no1 (stereo unspecified) > 76.9 µM, CCN1C(=O)CC(Sc2ccccc2N)C1=O (stereo unspecified) > 76.9 µM, O=C(CSC1=Nc2ccccc2C2=NC(c3ccccc3)C(=O)N12)NCC1CCCO1 (stereo unspecified) > 76.9 µM, COc1ccc(CN2CCN(S(=O)(=O)c3ccc(NC(C)=O)cc3)CC2)cc1OC > 76.9 µM, N#C/C(C(=O)N1CCOCC1)=c1\s/c(=C/c2ccncc2)c(=O)n1-c1ccccc1 > 76.9 µM, Fc1ccc(-c2nnc3sc(-c4ccc5c(c4)OCO5)nn23)cc1 > 76.9 µM, COC(=O)[C@H](C)NC(=O)Nc1ccccc1F > 76.9 µM, CCOC(=O)C(C)NC(=O)C(NC(=O)C1CCC(CC)CC1)C(C)C (stereo unspecified) > 76.9 µM, O=C1C2CC=CCC2C(=O)N1CC(=O)N(Cc1ccccc1)C1CCS(=O)(=O)C1 (stereo unspecified) > 76.9 µM, Cc1ccc(NC(=O)C2CC(=O)NC(N3CCCCC3)=N2)cc1Cl (stereo unspecified) > 76.9 µM, O=c1c2[nH]c3ccc(Br)cc3c2ncn1CCCn1ccnc1 > 76.9 µM, O=S(=O)(Nc1ccccn1)c1ccc(C2CCCCC2)cc1 > 76.9 µM, CC(=O)Nc1ccc(S(=O)(=O)N2CCN(S(=O)(=O)N3CCCCCC3)CC2)cc1 > 76.9 µM, CCN(CC)c1ccc(CNc2ccc(Br)cn2)cc1 > 76.9 µM, CC1=C(SCCC#N)S/C(=C2\SC(C)=C(SCCC#N)S2)S1 > 76.9 µM, Cc1nn(CC(=O)NC(C)c2ccccc2)c(=O)c2ccccc12 (stereo unspecified) > 76.9 µM, CCc1nnc(NC(=O)CCN2C(=O)c3ccccc3S2(=O)=O)s1 > 76.9 µM, N#CC1=C(N)SC(N)=C(C#N)C1c1ccoc1 > 76.9 µM, c1ccc2sc(N3CN(CCN4CCOCC4)CN(c4nc5ccccc5s4)C3)nc2c1, CCCn1c(SCC(=O)Nc2nnc(CC)s2)nnc1-c1ccco1 > 76.9 µM, CCCc1nc(-c2ccccc2O)n(-c2ccccc2)n1 > 76.9 µM, CC(=O)N1c2ccccc2C(=O)C1N1CCCCC1 (stereo unspecified) > 76.9 µM, COc1cccc(-c2cc(C(=O)N3CCN(C(c4ccccc4)c4ccccc4)CC3)no2)c1 > 76.9 µM, O=C(NCCc1ccccc1)c1ccnc(/C=N/O)c1 > 76.9 µM, c1nc(N2CCOCC2)c2sc3nc(N4CCOCC4)c4c(c3c2n1)CCCC4 > 76.9 µM, Cc1cc(NC(=O)c2noc3c2CCCC3)n(-c2ccccc2)n1 > 76.9 µM, Cc1ccc(NCC(O)C(O)C(O)CO)cc1C (stereo unspecified) > 76.9 µM, CN1CCN(CCCNC(=O)c2ccc(CSCc3cccc(Cl)c3)o2)CC1 > 76.9 µM, N#Cc1c(N)nc(SCc2ccccc2)c(C#N)c1-c1ccco1 > 76.9 µM, O=C(CSc1nc2ccccc2[nH]1)Nc1ccccc1N1CCOCC1 > 76.9 µM, O=C(CCNC(=O)Cn1ccc2ccccc2c1=O)NCCN1CCc2ccccc2C1 > 76.9 µM, Cc1ccc(CNS(=O)(=O)c2ccc(C(C)(C)C)cc2)n1C > 76.9 µM, CCCC(C)C(=O)Nc1ccc2c(c1)OCCO2 (stereo unspecified) > 76.9 µM, CCCCNC(=O)CC1N=C2c3ccccc3N=C(SCC(=O)Nc3cccc(C)c3)N2C1=O (stereo unspecified) > 76.9 µM, CCCS(=O)(=O)N1CCCC(C(=O)NCCCN(C)Cc2ccccc2)C1 (stereo unspecified) > 76.9 µM, O=C(N1CCCCC1)C12CC3CC(C1)CC(C(=O)N1CCCCC1)(C3)C2 > 76.9 µM, CCOC(=O)CC(=O)CSc1ncnc2c1oc1ccccc12 > 76.9 µM, CCOCCCn1c(=S)[nH]c2cc(C(=O)NCCOC)ccc2c1=O > 76.9 µM
